Hit rate of the full screen: of about 150,000 compounds, about 6,500 (4.3%) were called active. This list was built around the results that the source calls inconclusive (neither active nor inactive); the mix of calls is not that of the screen. Calls come from the whole dose curve; as a rule, active = well fitted inhibition curve with a large enough effect (not every such curve was filed as active); inconclusive = small, poorly fitted or top-dose-only effect, or another doubt; inactive = no such curve, though single readings can be large or run the other way. No potency is given beside an inconclusive call; the fits are too rough.
Molecular target: 15-hydroxyprostaglandin dehydrogenase [NAD(+)] (Homo sapiens) (UniProt P15428)
UniProt P15428, sequence (P15428 whole entry, looked up): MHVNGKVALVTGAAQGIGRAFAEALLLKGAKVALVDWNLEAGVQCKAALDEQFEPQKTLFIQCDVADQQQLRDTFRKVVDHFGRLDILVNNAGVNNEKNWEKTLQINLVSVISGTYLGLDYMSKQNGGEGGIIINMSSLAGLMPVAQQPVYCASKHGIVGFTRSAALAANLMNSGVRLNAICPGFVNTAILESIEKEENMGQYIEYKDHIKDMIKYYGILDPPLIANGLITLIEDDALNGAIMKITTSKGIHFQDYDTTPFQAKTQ
Test: qHTS Assay for Inhibitors of HPGD (15-Hydroxyprostaglandin Dehydrogenase)
Settings: purified HPGD, NADH fluorescence kinetic, PGE2 substrate; activity change, negative = inhibition: stronger effect = lower value
Outline: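 20 nM HPGD preincubated 15 min at room temperature with compound in 50 mM Tris-HCl pH 8, 0.01% Tween 20. Started with 1 mM NAD+ and 30 uM prostaglandin E2; NADH fluorescence (360/450 nm) read 5 times over 30-s intervals, last minus first.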
% is set by controls: 0 for no effect and ±100 for the full control effect; potency is the fitted concentration of half-maximal effect; tags give direction and shape of the fitted curve.

| SMILES | Potency | activity change, negative = inhibition |
| --- | --- | --- |
| Cc1ccc(NC(=O)c2ccc3c(c2)OCCO3)cc1 | inconclusive [inhibitor, partial curve] | – |
| Cc1cccc(OCc2nnc(SCn3nnc4ccccc4c3=O)o2)c1 | inconclusive [inhibitor, partial curve] | – |
| Cc1ccc(-c2[nH]c(-c3ccc(C(=O)O)cc3)nc2-c2ccccc2)cc1 | inconclusive [inhibitor, partial curve] | – |
| O=C(Nc1ccc2oc(-c3ccncc3)nc2c1)c1cccs1 | inconclusive [inhibitor, partial curve] | – |
| CCCc1cc(-c2n[nH]c(=S)n2C(C)c2ccccc2)cs1 (configuration not stated) | active: 12.6 µM | – |
| CN(C)CCCNC(=O)c1ccc(-c2nc(-c3ccc(Cl)cc3)cs2)cc1 | inconclusive [inhibitor, partial curve] | – |
| CC(/C=N/n1c(-c2ccco2)n[nH]c1=S)=C\c1ccccc1 | active: 2.51 µM | – |
| CC(=O)Nc1ccc2c(c1)C(=O)N(c1ccc(C)cc1)C2=O | inconclusive [inhibitor, single point] | – |
| CCSc1nc(-c2ccco2)ccc1C#N | inconclusive [inhibitor, partial curve, poor fit] | – |
| Cc1cccc(Cn2c(N3CCN(c4ccccc4)CC3)nc3c2c(=O)n(C)c(=O)n3C)c1 | inconclusive [inhibitor, single point] | – |
| O=C(CCCCCN1C(=O)c2cccc3cccc(c23)C1=O)N1CCOCC1 | inconclusive [inhibitor, single point] | – |
| O=C(Nc1ccc(F)cc1)c1sc2cc(C(F)(F)F)cnc2c1-c1cccs1 | inconclusive [inhibitor, single point] | – |
| COc1cccc(C2=NOC(C(=O)NC3CCCCC3)C2)c1 (configuration not stated) | inconclusive [inhibitor, partial curve] | – |
| O=C(COc1ccccc1O)Nc1ccc(Cl)cc1 | inconclusive [inhibitor, partial curve] | – |
| COc1ccc(-n2c(SCC(=O)Nc3sc4c(c3C#N)CCCC4)nnc2-c2ccccc2OC)cc1 | – | inactive: -13% |
| Cn1cccc1C(=O)N1CCC[C@@]2(CCN(c3cccc(-c4ccccc4)c3)C2)C1 | inconclusive [inhibitor, single point] | – |
| O=C(NC1CCCC1)c1cnc2n(c1=O)CCS2 | active: 35.5 µM | – |
| CCCC1Nc2ccc(C(=O)O)cc2C2C=CCC12 (configuration not stated) | inconclusive [inhibitor, partial curve] | – |
| Fc1cc(F)c(F)c(SCCc2ccncc2)c1F | inconclusive [inhibitor, single point] | – |
| Cc1ccccc1NC(=O)c1ccccc1 | inconclusive [inhibitor, partial curve] | – |
| Oc1cccc(C(=S)N2CCN(Cc3ccccc3)CC2)c1 | active: 14.1 µM | – |
| Cc1nn2c(N3CCN(C(=O)c4ccco4)CC3)cc(C(C)(C)C)nc2c1-c1ccccc1 | inconclusive [inhibitor, partial curve] | – |
| COc1cc(/C=C/C(=O)OCC(=O)NCc2cccs2)ccc1OC(F)F | inconclusive [inhibitor, single point] | – |

| SMILES | Potency | activity change, negative = inhibition |
| --- | --- | --- |
| CC1=C(C(=O)Nc2nc3ccccc3s2)C(c2ccco2)C(C#N)=C(SCC(=O)NC2CCCCC2)N1 (configuration not stated) | inconclusive [inhibitor, partial curve] | – |
| Cc1ccc(NC(=S)NNC(=O)C2CC2c2ccc(C)cc2)cc1 (configuration not stated) | – | inactive: -18.4% |
| CC1=C(C(=O)Nc2ccccn2)C(c2ccc(Br)cc2)n2ncnc2N1 (configuration not stated) | – | inactive: -7.53% |
| CCOC(=O)c1cn2cccnc2n1 | inconclusive [inhibitor, partial curve] | – |
| CC1=NN(C(=O)Cn2nc([N+](=O)[O-])cc2C)C(O)(C(F)(F)F)C1 (configuration not stated) | – | inactive: 2.71% |
| O=C(Nc1nccs1)c1cc2sccc2n1Cc1ccc(F)cc1 | inconclusive [inhibitor, partial curve] | – |
| CC(C)(C)SCCNC(=O)c1ccc(Cl)c([N+](=O)[O-])c1 | active: 28.2 µM | – |
| N[C@@H](Cc1cc(-c2ccc(Cl)cc2Cl)cc(CP(=O)(O)O)c1O)C(=O)O | inconclusive [inhibitor, partial curve, poor fit] | – |
| COc1ccc(CCNC(=O)c2cc(-c3ccc(Cl)c(Cl)c3)oc2C)cc1 | inconclusive [inhibitor, single point] | – |
| Cc1ccccc1C(=O)Nc1cccc(NC(=O)c2ccc(-c3ccc(Br)cc3)o2)c1 | inconclusive [inhibitor, single point] | – |
| Cc1cc(C)c(S(=O)(=O)n2c([N+](=O)[O-])cnc2C)c(C)c1 | – | inactive: -10.1% |
| C=CCNc1nc(-c2ccccc2)c(C(=O)OCC)cc1C#N | inconclusive [inhibitor, partial curve, poor fit] | – |
| COc1cc(C=O)ccc1OCCOCCOc1c(C)cc(Cl)cc1Cl | inconclusive [inhibitor, single point] | – |
| Cc1cc(C)c2nc(NC(=O)c3ccc4c(c3)OCO4)sc2c1 | inconclusive [inhibitor, partial curve] | – |
| Cc1csc(NC(=O)CSc2nnc(NC(=O)COc3ccccc3)s2)n1 | – | inactive: -4.48% |
| Cc1ccccc1CN(c1ccc(C(=O)N2CCCC2)cc1)S(C)(=O)=O | – | inactive: -9.9% |
| CCCCC/C=C\C\C=C/C=C/C=C/[C@@H](SCC(N)C(=O)O)[C@@H](O)CCCC(=O)O (some centres not stated) | – | inactive: 2.29% |
| CC(C)c1ccccc1NC(=O)COC(=O)/C=C/c1cccc([N+](=O)[O-])c1 | – | inactive: -5.19% |
| O=c1c2c3nc4ccccc4nc3n(CC3CCCO3)c2ncn1CCc1ccccc1 (configuration not stated) | inconclusive [inhibitor, partial curve] | – |
| Cc1nc2ccc(NC(=O)c3c(-c4ccccc4)noc3C)cc2s1 | – | inactive: -6.47% |
| CN(C)S(=O)(=O)c1cccc(NC(=O)c2cc3c(=O)n4ccccc4nc3s2)c1 | inconclusive [inhibitor, partial curve] | – |
| COc1ccc(NC(=O)CN2c3cccc4cccc(c34)S2(=O)=O)c(OC)c1 | inconclusive [inhibitor, partial curve] | – |
| Cc1ccc(C(=O)NNC(=S)Nc2cccc(Cl)c2Cl)cc1[N+](=O)[O-] | active: 11.2 µM | – |

| SMILES | Potency | activity change, negative = inhibition |
| --- | --- | --- |
| CCOC(=O)c1ccc(Oc2c(C)oc3c(CN4CCN(C)CC4)c(O)ccc3c2=O)cc1 | inconclusive [inhibitor, partial curve] | – |
| Cc1ccc(-n2c(SCc3ccc([N+](=O)[O-])cc3)nc3ccccc3c2=O)cc1 | – | inactive: -13.2% |
| COc1ccc(C2Nc3ccccc3C(=O)N2c2ccc(C)cc2)cc1Cn1cc([N+](=O)[O-])cn1 (configuration not stated) | – | inactive: -18.9% |
| Cc1ccn2cc(-c3ccc(S(=O)(=O)N4CCOCC4)cc3)nc2c1 | inconclusive [inhibitor, partial curve] | – |
| CCOC(=O)c1cc2c(C(F)(F)F)cc(-c3cccnc3)nc2o1 | inconclusive [inhibitor, single point] | – |
| COc1ccc(CCCC(=O)NCc2ccccc2)cc1C | active: 15.8 µM | – |
| O=C(Oc1c(Br)cc(C(=S)N2CCOCC2)cc1Br)c1ccc(Cl)cc1 | active: 15.8 µM | – |
| CC1=Nc2nc(N3CCCCC3)c(C#N)c3c4c(nc(c23)N1)N(c1ccc(C(C)C)cc1)C(=O)C4 | inconclusive [inhibitor, partial curve] | – |
| Cc1c2ccccc2c(CSC(=N)N)c2ccccc12 | inconclusive [inhibitor, partial curve] | – |
| O=C(NCCC1=CCCCC1)C(=O)NCC(c1ccco1)N1CCN(c2ccc(F)cc2)CC1 (configuration not stated) | – | inactive: -3.76% |
| CCSC1=N/C(=C\c2ccc(C)s2)C(=O)S1 | – | inactive: -20.9% |
| COc1cc2nc(CN(C)CC(=O)Nc3ccc(N4CCOCC4)cc3)[nH]c(=O)c2cc1OC | inconclusive [inhibitor, partial curve] | – |
| COc1cccc(-n2cc3c(=O)n(C)c(=O)n(C)c3c2)c1 | – | inactive: -12.2% |
| CC(/C=C1\SC(=S)N(CCCC(=O)Nc2ccc(C(=O)O)c(O)c2)C1=O)=C\c1ccccc1 | inconclusive [inhibitor, partial curve] | – |
| CN1C(=O)C(O)(CC(=O)/C=C/C=C/c2ccccc2)c2ccccc21 (configuration not stated) | inconclusive [inhibitor, single point] | – |
| Cc1c(C(=O)N(C)C)sc(NC(=O)c2cc([N+](=O)[O-])cc([N+](=O)[O-])c2)c1C#N | inconclusive [inhibitor, partial curve] | – |
| O=C(NCc1ccccn1)c1cc2ccccc2oc1=O | inconclusive [inhibitor, partial curve] | – |
| CCN1CCN(C(=O)c2cc3c(=O)n4ccccc4nc3n2Cc2ccccc2)CC1 | inconclusive [inhibitor, partial curve] | – |
| CC1CCCN(c2oc(-c3cccc4ccccc34)nc2C#N)C1 (configuration not stated) | inconclusive [inhibitor, partial curve] | – |
| CCOc1c2ccc(C(=O)NCC34CC5CC(CC(C5)C3)C4)cc2nn1CC | inconclusive [inhibitor, partial curve] | – |
| CC(C)[C@@H](CC(=O)N[C@@H]1CCCC[C@H]1C(=O)N[C@H](CC(=O)N[C@@H](CCC(=O)O)CC(=O)O)Cc1c[nH]c2ccccc12)NC(=O)C[C@H](CO)NC(=O)[C@@H]1CCCC[C@H]1N | – | inactive: -13.5% |

Source: PubChem BioAssay AID894 (National Center for Advancing Translational Sciences (NCATS), 2007)
